Reference: the supplement of paper PMC10126150
Values marked as one replicate rest on one cluster of the flow cell; about a third of the high ones do not repeat.

Test system: ATP
Assay: switch fluorescence ratio, 500 uM ATP over buffer (Cy3 cluster intensity, sum of 5 cycles each) (fold (ratio)); higher = stronger signal-on switching upon ATP binding; sequences stand for … in TCGTCGGCAGCGTCAGATGTGTATAAGAGACAGTTTTTTTTTTTTTTTTTTTTTTTTT…TC
Conditions: aptamer strand: ATP DNA aptamer (quencher-CACCTGGGGGAGTATTGCGGAGGAAGG + anchor), 100 nM annealed; ATP concentration: 500 uM; one replicate
How it was run: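 Cy3-labelled switching-strand clusters on a modified Illumina MiSeq flow-cell were annealed to 100 nM quencher-labelled ATP aptamer and imaged first in selection buffer, then after 15 min with 500 uM ATP at 22 °C. NaOH stripping and re-annealing separated each of five buffer/ATP cycles, and clusters outside 100-1000 RFU were excluded. The fluorescence ratio sums target-cycle Cy3 intensity over buffer-cycle Cy3 intensity per cluster and averages it per switch-domain sequence.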
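Note: ATP exposure 15 min at 22 °C before imaging.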

Sequence | switch fluorescence ratio
TGACGCGTTA | 1.08
AAAATGTAAA | 1
CGAGGTATGG | 1.02
GAGACAATGA | 1.08
AGAACGTACT | 1.42
ATAAGGGACC | 1.05
TGCATTCTGG | 1.1
CCGTACGAGA | 1.64
AGTGATTC | 1.32
CAATGAAATA | 1.02
AGATTCTTCT | 0.926
ATCGCGGCTT | 0.966
GAACGCAAGG | 1.39
GGTCGTTTAT | 0.996
GTGCCGACTT | 0.997
TTGCGTACT | 1.11
GTGTGAATAG | 1.05
TAAGTCGGA | 1.1
AGGGAGTAA | 0.98
CGGGGTCTG | 0.981
CGCTGGGGAG | 0.993
GTACGTTTGG | 0.957
TTCATAGTCT | 1.03

Sequence | switch fluorescence ratio
AGGCAAAGCG | 1
ACGGATTCTG | 0.919
ATCTTTTAT | 1.01
GCGCCATAGG | 1.03
AGAAGTTCTT | 1.01
TACGTTACA | 1.47
GGGTCCATAG | 0.981
GGTGAAACGC | 1.03
GGTGTCTTGT | 0.989
CCGTGATGCG | 1.18
AGGGACCTGG | 1.1
CTATACATGT | 1.01
TTGACCGTGT | 0.995
TCGAACAACC | 1.08
AATATGTCT | 1
GTTTGTAGA | 1.02
TTCCTTCCGT | 2.23
TCTTATGAGA | 0.955
TAGATTGGCA | 1
TTTTGTGACT | 0.971
ACTTTAACA | 1.09
TTCCGGGGAG | 0.989
TGCGCAGTTT | 1.04

Sequence | switch fluorescence ratio
GGCTCCACTG | 1.06
AGCAGATTGT | 0.999
AACTGGTTC | 0.978
GGAGAATGTG | 0.916
GGTTTGTTGG | 0.987
ATCGTGATCG | 1.09
CTTGGGATGT | 0.959
AGATAAGTTG | 0.945
TGTGTCTAGA | 1.03
AGTGGCGGAA | 0.998
CACATGAGGA | 1.03
CAACTGGTGA | 1.08
TAGAGCATGA | 0.951
TTCTGCCCCA | 1.02
GGGGACGTAG | 0.963
CTGAGTGTTG | 1
TGGGGTCCCG | 0.961
TGGCTGGATA | 1.01
CACTTACGTA | 1.43
CGATGCTTA | 1.14
GGTGGTACGG | 1.07
TTCTTCAGCT | 1.02
AATCAATTTC | 0.96

Sequence | switch fluorescence ratio
GGGAGACCTC | 1.03
CTTGATTGTC | 0.997
GGCCCAATTT | 1.01
TGGCGTCACA | 0.996
GTGATCAGAT | 0.957
TTTACGCGTG | 0.993
AGTTCCTAGG | 1.03
AGAATCGCCA | 0.944
AGAATTTCAG | 1
AAGCACATTC | 1.58
ATTAAAAAGG | 1.03
ATTGTTACAA | 0.973
CAGCCGGCGT | 1.06
ATATAGTGCC | 0.992
CGAGGGATTA | 1.06
GCACGCGCT | 1.09
ATCATTCCTA | 0.994
TTACTCTCCC | 1.3
GATCCCGACG | 1.13
GGCATGCGGC | 1.03
TGATAGCTCT | 1.02
TAGGCATTGA | 1.03
AGTATTAAG | 0.958

Sequence | switch fluorescence ratio
TGGCTGCGGG | 0.983
CGCCGCGTGT | 1.05
CTGGTTAGCA | 0.992
CAATGGTCTC | 1.03
GCCTAATTCA | 0.945
TGAGGGTGGC | 0.946
GAGAACATTT | 1.01
TGGATTCAT | 0.985
GGTTAATCGC | 1.03
GGATCCAGAG | 0.974
CGTATAATAC | 2.39
GTTAGCGCCT | 0.961
AGGCCCATCG | 1.04
TATGCCTTCA | 1.16
GCATATGTTG | 0.999
CAGTTGTGGA | 1.01
GATTTAACTC | 1.01
CGGACCATCC | 1.6
TCCAGGTAGG | 1.13
GATGTTATGG | 1.04
CGTCAATAAT | 1.93
CCTGTTATTT | 1.05
CGTCGAGTAA | 1.07

Sequence | switch fluorescence ratio
CTCGATAAGG | 1
GTGGCTGCG | 0.992
TTCTGTACTC | 1.46
ATGATCATC | 1.01
ACTACGCGCC | 3.74
TATCTTATTA | 1.05
AGTTCCCATA | 0.968
AGGATGCAAG | 1.01
TGAACCCAGG | 3.16
GAGGTAGAAA | 1.02
GCGGTGCCTC | 0.988
TGGTCTCAAA | 0.988
CGGCCCACTG | 1.02
TGCTATCTTA | 0.991
CTTAGGATTT | 0.97
CGTCTCCTG | 0.967
CTTCACTGC | 1.06
CCATGCCAT | 0.983
ATCACGCAAT | 5.59
CTACTAGATA | 1.01
ATAGCCA | 1.23
TTATGGCGCG | 0.954
TTGTTGTCCA | 0.991

Sequence | switch fluorescence ratio
TGTTTCAACG | 0.951
TTTTCCCGGC | 1.02
GCACGAGGAC | 0.965
AAAAGTTTAA | 0.966
CTCGTAGATG | 1.04
ATATCAAAAA | 1.01
CTAGGAGCCC | 0.977
TTATAGACGG | 0.993
GGACCTTGGG | 1.03
TCAATGATTA | 1.03
TGGATACTGG | 0.969
CTATTTTGGA | 0.957
ATCTAACTTG | 1.02
CCGTCATCAC | 4.46
CGCCCTTCCA | 2.05
GTAATTCTTT | 0.98
TTATTGGCCC | 1.05
TTTTCATCGA | 1.02
ACGTGTTAGG | 1.05
CTCGTTATC | 1.14
